# Laboratory results from PubChem BioAssay (Tox21).
# Where “and” joins values, the source holds several entries; their conditions need not be identical. Identical values can stand only once. This list was built around the results that the source calls inconclusive (neither active nor inactive); the mix of calls is not that of the screen. For part of these data: Potencies of inconclusive entries are doubtful fits and often do not repeat. Calls of active or inactive are those of the source. Unless noted, the call rests on the fitted dose curve; in most records, active means well fitted curve in the direction sought with a large enough effect in the repeat runs; inconclusive means weak or mixed curves; inactive means no such curve, though single readings can be large; an effect the other way counts as inactive or inconclusive.
# How the values were obtained:
# [1] = qHTS assay for small molecule agonists of the p53 signaling pathway (AID 651631; calls by dose curve; further: nearly all actives have a fitted effect of over 15% in size; further: potency means the concentration at half of the fitted maximal effect); settings: HCT-116 p53RE-bla reporter, beta-lactamase FRET ratio, 16 h; activation: at 73.3 µM (top of the series) unless noted
# In short: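 HCT-116 cells carrying a stable p53 response element–beta-lactamase reporter were plated, rested 5 h at 37 °C, then exposed to compound in DMSO for 16 h at 37 °C; reporter activity was read as FRET substrate fluorescence after 2 h at room temperature.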
# [2] = biological target: Glucocorticoid receptor (Homo sapiens) (UniProt P04150); assay: qHTS assay to identify small molecule agonists of the glucocorticoid receptor (GR) signaling pathway (AID 720691; active means well fitted activation curve with a large enough effect in the signal ratio in the repeat runs, not every such curve was filed as active; inconclusive means weak or mixed curves, or effect the other way; inactive means no such curve, though single readings can be large or run the other way; the % refers to the signal ratio); settings: GR-bla HeLa, beta-lactamase reporter ratio, 18 h; activation: at 62.4 µM (top of the series) unless noted
# In short: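 Steps: seed GR-bla HeLa cells, incubate 4 h at 37 C/5% CO2; pin-transfer DMSO-dissolved compounds; incubate 18 h at 37 C; add LiveBLAzer B/G FRET substrate; after 2 h at room temperature, measure fluorescence.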
# [3] = qHTS assay for identifying genotoxic compounds that show differential cytotoxicity against isogenic chicken DT40 cell lines with known DNA damage response pathways - wild type cell line (AID 743012); settings: DT40 wild type chicken cells viability, CellTiter-Glo, 40 h; activity change, negative = cytotoxicity: at 68.4 µM (top of the series) unless noted; further: nearly all actives have a fitted effect of over 60% in size; further: potency means the concentration at half of the fitted maximal effect
# In short: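 Cytotoxicity in repair-proficient parental chicken DT40 cells serves as the comparator for Rad54/Ku70- and Rev3-deficient lines. Cells were exposed to compounds for 40 h at 37 C/5% CO2, and ATP-based luminescence (CellTiter-Glo) measured viability.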
# [4] = qHTS assay for small molecule disruptors of the mitochondrial membrane potential (AID 720635); settings: HepG2 mitochondrial membrane potential, Mito-MPS dye ratio; series mostly up to 83.2 µM; further: potency means the concentration at half of the fitted maximal effect
# In short: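 HepG2 cells exposed to compound 1 hr at 37C, then Mito-MPS dye 30 min. Ratio read of aggregate (540/590 nm) versus monomer (490/535 nm) fluorescence.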
# [5] = qHTS assay for identifying genotoxic compounds that show differential cytotoxicity against isogenic chicken DT40 cell lines with known DNA damage response pathways - Rad54/Ku70 mutant cell line (AID 743015); settings: DT40 Rad54/Ku70 mutant viability, CellTiter-Glo, 40 h; activity change, negative = cytotoxicity: at 66.8 µM (top of the series) unless noted; further: nearly all actives have a fitted effect of over 60% in size; further: potency means the concentration at half of the fitted maximal effect
# [6] = qHTS assay for identifying genotoxic compounds that show differential cytotoxicity against isogenic chicken DT40 cell lines with known DNA damage response pathways - Rev3 mutant cell line (AID 743014); settings: chicken DT40 Rev3-/- viability, CellTiter-Glo, 40 h; series mostly up to 68.4 µM; further: nearly all actives have a fitted effect of over 55% in size; further: potency means the concentration at half of the fitted maximal effect
# [7] = biological target: Glucocorticoid receptor (Homo sapiens) (UniProt P04150); assay: qHTS assay to identify small molecule antagonists of the glucocorticoid receptor (GR) signaling pathway (AID 720692; active means well fitted inhibition curve with a large enough effect in the signal ratio in the repeat runs, not every such curve was filed as active; inconclusive means weak or mixed curves, or effect the other way; inactive means no such curve, though single readings can be large or run the other way; the % refers to the signal ratio; further: potency means the concentration at half of the fitted maximal effect); settings: GR-bla HeLa, beta-lactamase FRET ratio, dexamethasone-stimulated, 18 h; series mostly up to 58.5 µM
# In short: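 Antagonism was scored as loss of dexamethasone-driven (5 nM final) reporter signal in HeLa cells bearing a glucocorticoid response element–beta-lactamase construct, after 18 h compound exposure at 37 C and 2 h FRET substrate loading.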
# [8] = qHTS assay to identify small molecule antagonists of the glucocorticoid receptor (GR) signaling pathway - cell viability counter screen (AID 720693); settings: GR-bla HeLa viability, CellTiter-Glo luminescence, 18 h, with 5 nM dexamethasone present; series mostly up to 58.5 µM; further: nearly all actives have a fitted effect of over 55% in size; further: potency means the concentration at half of the fitted maximal effect
# [9] = qHTS assay for small molecules that induce genotoxicity in human embryonic kidney cells expressing luciferase-tagged ATAD5 (AID 651632); further: potency means the concentration at half of the fitted maximal effect; nearly all actives have a fitted effect of over 15% in size
# In short: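 Cells were seeded at 2,000 per well, dosed with compound, and incubated 16 hr at 37C in 5% CO2. Luciferase activity was then quantified after a 30 min room-temperature incubation with Amplite.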
# [10] = qHTS assay for small molecule agonists of the p53 signaling pathway - cell viability (AID 651633; calls by dose curve; further: potency means the concentration at half of the fitted maximal effect; nearly all actives have a fitted effect of over 30% in size)
# In short: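 p53RE-bla cells were treated with compound for 16 hours at 37 C. Cytotoxicity was then measured as CellTiter-Glo luminescence after 30 min at room temperature.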
# [11] = qHTS assay for small molecule disruptors of the mitochondrial membrane potential - cell viability (AID 720634; calls by dose curve; further: potency means the concentration at half of the fitted maximal effect; nearly all actives have a fitted effect of over 20% in size)
# In short: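 Cytotoxicity was measured by ATP quantitation in HepG2 wells that had first been treated with compound for 1 hr and stained with m-MPI dye; CellTiter-Glo incubation was 30 min at room temperature.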
# Tags describe the fitted curve by direction and shape or compound fluorescence and quenching.
# Sequence of UniProt P04150 (P04150 whole entry, looked up): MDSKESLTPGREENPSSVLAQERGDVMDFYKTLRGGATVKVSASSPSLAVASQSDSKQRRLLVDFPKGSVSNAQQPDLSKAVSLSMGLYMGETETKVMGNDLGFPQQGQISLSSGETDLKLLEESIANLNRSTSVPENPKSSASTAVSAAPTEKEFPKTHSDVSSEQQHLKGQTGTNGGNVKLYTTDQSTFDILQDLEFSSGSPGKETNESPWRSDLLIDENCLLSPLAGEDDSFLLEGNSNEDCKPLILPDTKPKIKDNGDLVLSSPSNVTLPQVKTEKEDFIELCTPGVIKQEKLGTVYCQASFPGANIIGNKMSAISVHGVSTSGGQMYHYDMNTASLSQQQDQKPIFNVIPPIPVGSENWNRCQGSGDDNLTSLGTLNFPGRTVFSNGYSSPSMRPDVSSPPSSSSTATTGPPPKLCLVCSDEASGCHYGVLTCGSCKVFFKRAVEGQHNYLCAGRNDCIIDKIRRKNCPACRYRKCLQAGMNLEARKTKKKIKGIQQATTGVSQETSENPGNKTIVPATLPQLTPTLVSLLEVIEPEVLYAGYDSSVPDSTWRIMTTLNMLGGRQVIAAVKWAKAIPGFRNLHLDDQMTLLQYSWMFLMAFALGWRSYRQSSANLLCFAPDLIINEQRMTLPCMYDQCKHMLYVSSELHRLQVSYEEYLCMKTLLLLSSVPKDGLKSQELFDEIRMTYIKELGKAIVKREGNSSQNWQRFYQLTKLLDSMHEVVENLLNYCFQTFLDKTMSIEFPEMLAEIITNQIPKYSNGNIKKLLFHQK
smiles,measurement,setting,value
C[C@H]1O[C@H](OC2[C@@H](O)[C@@H](O)C(O)[C@H](O)[C@H]2O)[C@@H](N)C[C@@H]1N=C(N)C(=O)O (stereo not given in full),Potency,[1],inactive
same,Potency,[2],inactive
same,Potency,[3],inactive
COc1c(C(C)(C)C)cc([N+](=O)[O-])c(C)c1[N+](=O)[O-],Potency,[1],inactive
same,Potency,[4],inconclusive: 48.2 µM [inhibitor]
same,Potency,[3],inactive
same,Potency,[5],inactive
Cc1cc(=O)[nH]o1,Potency,[1],inactive
same,Potency,[4],inactive
same,Potency,[6],"inconclusive: 66.8 µM [cytotoxic, partial curve, poor fit]"
same,Potency,[5],"inconclusive: 59.5 µM [cytotoxic, partial curve]"
CN1C(=O)CN=C(c2ccccc2)c2cc(Cl)ccc21,Potency,[1],"inconclusive: 0.196 µM [falling, single point]"
same,Potency,[7],active: 13.4 µM and active: 28 µM
same,Potency,[6],"inconclusive: 69.6 µM [cytotoxic, single point]"
same,Potency,[5],"inconclusive: 33.5 µM [cytotoxic, single point] and inconclusive: 69.6 µM [cytotoxic, single point]"
COP(=S)(OC)Oc1nc(Cl)c(Cl)cc1Cl,Potency,[1],"inconclusive: 68.5 µM [activator, partial curve, poor fit]"
same,Potency,[8],inactive
same,Potency,[3],"inconclusive: 68.5 µM [cytotoxic, single point]"
same,Potency,[5],"inconclusive: 68.5 µM [cytotoxic, single point]"
COC(=O)c1c(C(F)F)nc(C(F)(F)F)c(C2=NCCS2)c1CC(C)C,Potency,[1],inactive
same,Potency,[3],"inconclusive: 68.6 µM [cytotoxic, single point]"
Clc1ccc(CSC(Cn2ccnc2)c2ccc(Cl)cc2Cl)cc1 (stereo not given),Potency,[1],inconclusive: 12.7 µM
same,Potency,[4],"inconclusive: 4.52 µM [activator, full curve]"
same,Potency,[3],active: 10.1 µM
same,Potency,[5],active: 12.7 µM
N#CCCC#N,Potency,[1],inactive
same,Potency,[8],"inconclusive: 1.07 µM [rising, single point]"
same,Potency,[5],inactive
CC(Cc1ccc(OCC(=O)O)cc1)NCC(O)c1csc(C(F)(F)F)n1 (stereo not given),Potency,[1],"inconclusive: 27.3 µM [falling, partial curve, poor fit]"
same,Potency,[4],inactive
same,Potency,[6],inactive
COP(=S)(OC)SCn1nnc2ccccc2c1=O,Potency,[1],"inconclusive: 67.3 µM [activator, single point] and inconclusive: 61.1 µM [activator, partial curve, poor fit]"
same,Potency,[3],"inconclusive: 75.5 µM [cytotoxic, single point] and active: 43.3 µM"
Nc1ccc(-c2ccccc2)cc1,Potency,[9],"inconclusive: 48.6 µM [activator, partial curve, poor fit]"
same,Potency,[8],"inconclusive: 50.4 µM [rising, single point]"
CCCCN(CCCC)C(=S)[S-].CCCCN(CCCC)C(=S)[S-].[Zn+2],Potency,[9],"inconclusive: 13.3 µM [activator, single point] and inconclusive: 13.7 µM [activator, single point]"
same,Potency,[4],inconclusive: 11.9 µM [inhibitor] and active: 27.3 µM
same,Potency,[7],"inconclusive: 23.9 µM [cytotoxic, single point] and inconclusive: 11 µM [inhibitor]"
same,Potency,[8],"inconclusive: 26.8 µM [rising, single point] and inconclusive: 21.9 µM [rising, single point]"
same,Potency,[3],"inactive and inconclusive: 13.7 µM [cytotoxic, full curve, poor fit]"
CCCCCc1cc(O)cc(O)c1,Potency,[10],"inconclusive: 68.6 µM [cytotoxic, single point]"
same,Potency,[11],"inconclusive: 27.4 µM [cytotoxic, partial curve, poor fit] and active: 61.1 µM"
same,Potency,[4],active: 9.73 µM and active: 7.7 µM
same,Potency,[3],"inconclusive: 2.44 µM [rising, full curve, poor fit]"
same,Potency,[5],"inconclusive: 68.9 µM [cytotoxic, single point] and inconclusive: 68.6 µM [cytotoxic, single point]"
